Data as given in the antibiotic and cytotoxicity screens of Wong et al. (2023).
This is one part of the list.

Tests used:
[1] = system: HSkMC (human skeletal muscle cells); assay: cytotoxicity call (relative viability < 0.9); details: 10 µM
[2] = system: HepG2; assay: cytotoxicity call (relative viability < 0.9); details: 10 µM
[3] = system: S. aureus RN4220; assay: growth inhibition call (relative growth <= 0.2); details: 50 µM

Compound	cytotoxicity call [1]	cytotoxicity call [2]	growth inhibition call [3]
COCC(=O)N(C)C[C@H]1Oc2cc(C#Cc3cccnc3)ccc2S(=O)(=O)N([C@@H](C)CO)C[C@@H]1C	inactive	inactive	inactive
O=C(C[C@H]1C[C@H]2c3cc(NC(=O)c4ccc5c(c4)OCO5)ccc3O[C@H]2[C@@H](CO)O1)NCc1ccccn1	inactive	inactive	inactive
C[C@@H]1CCCCO[C@@H](CN(C)Cc2ccc(C(=O)O)cc2)[C@@H](C)CN([C@@H](C)CO)C(=O)c2cc(NC(=O)C3CCCCC3)ccc2O1	inactive	inactive	inactive
CCOc1cc(CC(=O)NC(CC(C)C)c2ccccc2N2CCCCC2)ccc1C(=O)O (configuration not stated)	inactive	inactive	inactive
O=C(C[C@H]1CC[C@@H]2[C@H](COC[C@@H](O)CN2C(=O)c2ccccn2)O1)NC1CCC1	inactive	inactive	inactive
Cc1noc(C)c1NC(=O)N(C)C[C@@H]1OCCCC[C@H](C)Oc2ccc(NC(=O)Nc3ccc(F)cc3)cc2C(=O)N([C@@H](C)CO)C[C@H]1C	inactive	inactive	inactive
C[C@@H](O)C#Cc1ccc2c(c1)O[C@H](CN(C)C(=O)c1ccncc1)[C@@H](C)CN([C@@H](C)CO)S2(=O)=O	inactive	inactive	inactive
NCC[C@H]1CC[C@H](NC(=O)NC2CCCCC2)[C@H](CO)O1	inactive	inactive	inactive
COCCOC(=O)N1C(=O)[C@@]2(c3cc(C#CC4(O)CCCCCC4)ccc31)[C@H](c1ccccc1OCCO)N1[C@H](c3ccccc3)[C@H](c3ccccc3)OC(=O)[C@H]1[C@@H]2C(=O)N1CCc2cc(OC)c(OC)cc2C1	inactive	inactive	inactive
CC(C)C[C@H]1NC(=O)[C@@H](CCCN)NC(=O)[C@H](C(C)C)NC(=O)[C@H]2CCCN2C(=O)[C@@H](Cc2ccccc2)NC(=O)[C@@H](CC(C)C)NC(=O)[C@@H](CCCN)NC(=O)[C@H](C(C)C)NC(=O)[C@H]2CCCN2C(=O)[C@@H](Cc2ccccc2)NC1=O	active	active	inactive
NCCSC12CC3CC(CC(C3)C1)C2	inactive	inactive	inactive
COC(=O)CCCCCCNC(=O)c1ccc(NCc2cn(Cc3ccc(C(=O)c4ccc(Cn5cc(CNc6ccc(C(=O)NCCCCCCC(=O)OC)cc6)nn5)cc4)cc3)nn2)cc1	inactive	inactive	inactive
CSc1sc(C)cc1/C=N/O	inactive	inactive	inactive
C[C@@H]1CN([C@H](C)CO)C(=O)c2cc(NC(=O)Nc3ccc(C(F)(F)F)cc3)ccc2O[C@@H](C)CCCCO[C@@H]1CN(C)Cc1ccc(C(F)(F)F)cc1	active	inactive	inactive
O=C(NO)c1cccnc1	inactive	inactive	inactive
C[C@H]1CN([C@@H](C)CO)C(=O)c2cc(NC(=O)NC3CCCCC3)ccc2O[C@H]1CN(C)Cc1ccc(C(F)(F)F)cc1	inactive	inactive	inactive
C[C@@H]1CN([C@H](C)CO)C(=O)c2cccc(NC(=O)C3CC3)c2O[C@@H]1CN(C)Cc1ccc(-c2ccccc2)cc1	inactive	inactive	inactive

Compound	cytotoxicity call [1]	cytotoxicity call [2]	growth inhibition call [3]
COc1ccc(S(=O)(=O)N(C)C[C@@H]2Oc3ccc(NC(=O)Nc4c(C)noc4C)cc3CC(=O)N([C@H](C)CO)C[C@@H]2C)cc1	inactive	inactive	inactive
CC(C)CC(=O)N1CCC(N)CC1	inactive	inactive	inactive
C[C@@H]1CCCCO[C@@H](CN(C)Cc2ccc(C(F)(F)F)cc2)[C@@H](C)CN([C@@H](C)CO)C(=O)c2cc(NC(=O)Nc3ccc4c(c3)OCO4)ccc2O1	inactive	inactive	inactive
CN(C)C(=O)C1CCNCC1	inactive	inactive	inactive
COc1ccc(CN(C)C[C@@H]2Oc3c(NS(=O)(=O)c4c(C)noc4C)cccc3C(=O)N([C@@H](C)CO)C[C@@H]2C)cc1	inactive	inactive	inactive
C[C@@H]1CN([C@H](C)CO)C(=O)c2cccc(NC(=O)NC3CCCCC3)c2O[C@@H]1CN(C)S(C)(=O)=O	inactive	inactive	inactive
C[C@@H]1CN(C)C(=O)c2cc(NC(=O)Nc3ccccc3)ccc2O[C@@H](C)CCCCO[C@@H]1CN(C)S(=O)(=O)c1ccc(F)cc1	inactive	inactive	inactive
C[C@H]1CN([C@@H](C)CO)C(=O)c2cc(NC(=O)Nc3ccc(C(F)(F)F)cc3)ccc2O[C@H]1CN(C)C(=O)Nc1ccc(C(F)(F)F)cc1	inactive	inactive	inactive
C[C@H](CO)N1C[C@H](C)[C@@H](CN(C)Cc2ccc(C(F)(F)F)cc2)OCCCC[C@H](C)Oc2ccc(NS(=O)(=O)c3ccc(F)cc3)cc2C1=O	inactive	inactive	inactive
Cc1ccc(S(=O)(=O)N2C[C@@H](O)COC[C@@H]3O[C@@H](CC(=O)NCc4ccc5c(c4)OCO5)CC[C@H]32)cc1	inactive	inactive	inactive
C[C@@H]1CCCCO[C@@H](CN(C)C(=O)c2ccccc2)[C@H](C)CN([C@@H](C)CO)C(=O)c2cc(NC(=O)CCC(F)(F)F)ccc2O1	inactive	inactive	inactive
C[C@@H]1CN([C@H](C)CO)C(=O)c2cc(NC(=O)Cc3cn(C)c4ccccc34)ccc2O[C@H]1CN(C)S(C)(=O)=O	inactive	inactive	inactive
COc1ccc(S(=O)(=O)Nc2cccc3c2O[C@H](CN(C)S(=O)(=O)c2cn(C)cn2)[C@@H](C)CN([C@H](C)CO)C3=O)cc1	inactive	inactive	inactive
C[C@@H]1CN([C@@H](C)CO)C(=O)Cc2cc(NC(=O)Nc3cccc4ccccc34)ccc2O[C@@H]1CN(C)C(=O)NC1CCCCC1	inactive	active	inactive
CCC(=O)Nc1ccc2c(c1)OC[C@H](C)N(C(=O)CN1CCOCC1)C[C@@H](C)[C@@H](OC)CN(C)C2=O	inactive	inactive	inactive
C[C@@H]1CCCCO[C@H](CN(C)S(=O)(=O)c2ccc(Cl)cc2)[C@@H](C)CN([C@H](C)CO)C(=O)c2cc(NC(=O)Nc3cccc4ccccc34)ccc2O1	inactive	inactive	inactive
Cc1noc(C)c1NC(=O)N(C)C[C@H]1OCCCC[C@@H](C)Oc2ccc(NS(=O)(=O)c3ccc(F)cc3)cc2C(=O)N([C@@H](C)CO)C[C@H]1C	inactive	inactive	inactive
